Test system: D32.39 antibody
Assay: Solution competition of free peptide against radiolabeled dynorphin B peptide for D32.39 antibody
Assay type: binding, mouse
Details: free peptide in solution
Description: To confirm the interpretation of the observed fluorescence signals, peptides synthesized on a conventional solid phase peptide synthesizer were tested. The IC50 values for the competition of free peptide against radiolabeled dynorphin B peptide were determined and are tabulated in Table 3. There is a striking correlation between the rank ordering of the relative fluorescence intensity and the solution IC50 values.

| Molecule | IC50 [nM] |
| --- | --- |
| CC(C)C[C@H](NC(=O)[C@H](Cc1ccccc1)NC(=O)CNC(=O)CNC(=O)[C@@H](N)Cc1ccc(O)cc1)C(=O)N[C@@H](CCCNC(=N)N)C(=O)N[C@@H](CCCNC(=N)N)C(=O)N[C@@H](CCC(N)=O)C(=O)N[C@@H](Cc1ccccc1)C(=O)N[C@@H](CCCCN)C(=O)N[C@H](C(=O)N[C@H](C(=O)N[C@H](C(=O)O)[C@@H](C)O)C(C)C)C(C)C [reference compound] | 5.7 |
| Ac-QFKVVT-OH [Ac-QFKVVT-OH] | 3200 |
| Ac-RQFKVVT-NH2 [Ac-RQFKVVT-NH2] | 7.3 |
| Ac-RQFKVVT-OH [Ac-RQFKVVT-OH] | 11 |
| Ac-RRQFKVVT-OH | 3.9 |

From patent US20030099983A1, “Cyclic and substituted immobilized molecular synthesis” (Affymetrix, Inc., priority 1991, published 2003)
